The other results are listed elsewhere or left out. Values were computed here from the reads of four pooled replicates and scatter widely.
Biological target: T1, Pho4 (S. cerevisiae) (UniProt P07270)
T1 sequence: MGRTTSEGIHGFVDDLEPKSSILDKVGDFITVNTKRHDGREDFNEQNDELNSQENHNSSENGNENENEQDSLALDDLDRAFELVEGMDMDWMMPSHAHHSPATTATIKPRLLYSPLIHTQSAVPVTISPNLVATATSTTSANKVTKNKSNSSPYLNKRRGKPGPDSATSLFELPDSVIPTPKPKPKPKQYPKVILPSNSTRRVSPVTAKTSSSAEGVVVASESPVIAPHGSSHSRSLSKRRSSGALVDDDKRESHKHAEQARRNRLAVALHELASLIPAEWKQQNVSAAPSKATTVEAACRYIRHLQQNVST
Assay: relative binding free energy (BET-seq); higher = weaker binding
Details: reference: library average

Sequence | relative binding free energy [kcal/mol]
GGAGCCACGTGTTGAT | 0.09
GTTTTCACGTGTAGTT | 0.37
GCAGGCACGTGGGAAG | -0.15
AATAGCACGTGTGGGC | -0.07
TGGGGCACGTGATGGT | 0.01
GAGGTCACGTGGTGAT | 0.09
TTTTGCACGTGTAGGT | 0.02
AGTGACACGTGGAATT | 0.04
TGAGTCACGTGAGCGT | 0.29
GGGGCCACGTGAGGCG | -0.08
GGGTTCACGTGTCTTA | 0.36
AATTTCACGTGTGGCT | 0.27
TCATTCACGTGAAGGT | 0.26
CGTAGCACGTGGTGGC | -0.18
AGCTTCACGTGTCGTG | 0.16
GGGGACACGTGTTACT | 0.18
TAGGGCACGTGGCGAA | -0.13
GTGGACACGTGGAAAT | 0.13
ATAGGCACGTGTTCAT | -0.13
TATAGCACGTGACTGT | 0.1
GTTCGCACGTGGTGAC | 0.01
TTGGCCACGTGTGCTG | -0.11
GGGGGCACGTGATACT | 0

Sequence | relative binding free energy [kcal/mol]
GAGTACACGTGGGGGC | 0.02
GCTAGCACGTGATTGG | 0.19
AAGGGCACGTGTAAGA | 0
CAGGGCACGTGTTGAG | -0.1
AGTGGCACGTGTTGAC | -0.11
CAGAGCACGTGATGTG | 0.1
ATGAGCACGTGTGTGA | 0
TTTTACACGTGGCGGT | 0.15
ATATTCACGTGATAGG | 0.2
GGTTGCACGTGGTTAC | 0.03
TAACGCACGTGTGTGG | -0.05
TTAAGCACGTGGACGT | -0.04
AGTCTCACGTGTAATG | 0.22
TTCATCACGTGTGATG | 0.13
GGTTGCACGTGGTATA | -0.05
TTAGCCACGTGGGGGC | -0.11
TAAGTCACGTGGGATC | 0.03
GTTCGCACGTGTTGGA | -0.06
ATGGTCACGTGTTGCC | 0.17
GGTAACACGTGGGTGA | -0.13
TGTAGCACGTGTAGGG | 0
ATCTTCACGTGTTTGA | 0.16
CTAAACACGTGTTTGT | -0.04

Sequence | relative binding free energy [kcal/mol]
TCTCTCACGTGAGGTG | 0.28
TGAGGCACGTGTGAGA | 0.01
CGGTACACGTGGAGGG | 0.05
CGGGCCACGTGGTGTC | -0.19
GTTCACACGTGGTGGC | 0.05
TGAGGCACGTGTAGGG | -0.06
GAATACACGTGAGGGG | 0.26
AGTGTCACGTGGGCTC | 0.09
TGTTACACGTGTATAT | 0.15
ACGAACACGTGGTGGT | 0.03
AAGGGCACGTGAAGTT | 0.24
TTTGTCACGTGCGGGT | 0.12
GTGTTCACGTGGTTTC | 0.22
AATAGCACGTGAGGTT | 0.02
GGCGTCACGTGTGCGG | 0.13
GTATTCACGTGAGAAG | 0.34
TGGAACACGTGGCAGG | -0.02
GTGTGCACGTGTACGG | 0.07
AATTGCACGTGTAAGG | 0.11
GTAAGCACGTGGGCGT | -0.09
GTAAGCACGTGTTGGT | -0.01
ACGGGCACGTGGCCGG | -0.19
TGAGGCACGTGCGGCG | -0.2

Sequence | relative binding free energy [kcal/mol]
CGTGTCACGTGGTGCG | -0.08
TGTCGCACGTGCATGG | -0.17
ATATACACGTGTGAAT | 0.12
TGCTTCACGTGAGTAG | 0.35
TAATGCACGTGGGTTA | -0.28
GGACGCACGTGGGTTA | -0.11
GGAGGCACGTGAGTAG | 0.06
CATTCCACGTGGTGTG | 0.08
TAAGCCACGTGGTGTT | -0.18
TTTCACACGTGAGGTT | 0.21
GGGACCACGTGTGGGC | -0.01
GCATGCACGTGGGTTG | -0.08
GTTGGCACGTGGTCGC | -0.27
ACTTGCACGTGGGGTT | -0.08
TTTTTCACGTGGTCGT | 0.22
GCGGGCACGTGTCTTG | -0.07
GTTTACACGTGGATTG | 0
GTTCACACGTGTTTTA | 0.03
TTGATCACGTGCCGGG | 0.02
GATGTCACGTGATGTG | 0.35
TCGTTCACGTGTATGT | 0.11
GTGCGCACGTGGATTT | -0.04
ATCATCACGTGGGTAT | 0.02

Sequence | relative binding free energy [kcal/mol]
CCGTGCACGTGGCGTG | 0
CGTAACACGTGGTTGT | -0.1
TATCTCACGTGGGATG | 0.13
GGATACACGTGTTAAT | 0.32
GGTTCCACGTGGATTA | 0.22
GGGCTCACGTGGGCTT | 0.2
ATGGTCACGTGTTGCG | 0.02
ATTTACACGTGTTATA | 0.08
AAAATCACGTGTCGTT | 0.18
CTTATCACGTGGTATG | 0.05
TGACACACGTGATGGT | 0.13
GTTTGCACGTGGAAGA | 0.09
CTCTTCACGTGGGGGA | 0.12
TGATGCACGTGAAGCG | 0.2
GTAAGCACGTGGTTAT | -0.19
TGTTGCACGTGTACAG | 0.05
GGTGACACGTGTGGAT | 0.22
TTTATCACGTGACATG | 0.23
TAGAACACGTGTTTTG | -0.09
GTTATCACGTGCGTAG | 0.12
CTTTACACGTGATTTT | 0.16
CGTGTCACGTGGTAGG | 0.08
CTTTTCACGTGAGGGT | 0.33
